Results taken from the supplement of paper PMC7125110.
± gives the standard error. This sample is rich in variants without activity.

B1: glmS ribozyme (parent)
chain: AUAAAAGCGCCAGAACUACAGAAAUGUAGUUGACGAGGAGGAGGUUUAUCGAAUUUUCGGCGGAUGCCUCCAAA

Tests used:
Conditions in all cases: with glucosamine-6-phosphate
[1] = variants of: B1; assay: self-cleavage kobs at 40 uM GlcN6P; higher = faster cleavage; RNA array
Method in brief: (§1)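 kobs was derived by fitting per-tile medians to one- or two-exponential decays after normalising signals to baseline and to non-cleaving reference variants. Those signals came from barcoded ribozyme variants transcribed in situ by E. coli RNA polymerase on sequenced MiSeq chips, followed through a hybridised Cy3 probe at 37 °C and imaged over ~14 h. Glucosamine-6-phosphate (40 μM to 10 mM) in HEPES/KCl/Mg(OAc)2 buffer was flowed in. Weighted Michaelis–Menten fits across concentrations then gave kcat and KM.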

[2] = variants of: B1; assay: self-cleavage kobs at 10000 uM GlcN6P; higher = faster cleavage; RNA array
Method in brief: as §1

[3] = variants of: B1; assay: self-cleavage kobs at 160 uM GlcN6P; higher = faster cleavage; RNA array
Method in brief: as §1

[4] = variants of: B1; assay: self-cleavage kobs at 2500 uM GlcN6P; higher = faster cleavage; RNA array
Method in brief: as §1

[5] = variants of: B1; assay: self-cleavage kobs at 640 uM GlcN6P; higher = faster cleavage; RNA array
Method in brief: as §1

Variant	self-cleavage kobs at 40 uM GlcN6P [1] [s⁻¹]	self-cleavage kobs at 10000 uM GlcN6P [2] [s⁻¹]	self-cleavage kobs at 160 uM GlcN6P [3] [s⁻¹]	self-cleavage kobs at 2500 uM GlcN6P [4] [s⁻¹]	self-cleavage kobs at 640 uM GlcN6P [5] [s⁻¹]
G40A U49G U65G C67A C71G	< 1e-05	< 1e-05			
G38A U45C A52G	< 1e-05				
G41C C58A	< 1e-05	< 1e-05	< 1e-05		
G40C G62A	< 1e-05	< 1e-05	< 1e-05	< 1e-05	
G38A U46A	< 1e-05	< 1e-05	< 1e-05	< 1e-05	< 1e-05
G38C G41C C71U	< 1e-05	< 1e-05			
G41C C50A	< 1e-05	< 1e-05	< 1e-05	< 1e-05	< 1e-05
G40U G59U	< 1e-05		< 1e-05		
A39U G43U C61U	< 1e-05	< 1e-05		< 1e-05	< 1e-05
G38U G41A G63U	< 1e-05				
G40A U69G	< 1e-05	< 1e-05	< 1e-05	< 1e-05	< 1e-05
G41A U49C	< 1e-05		< 1e-05	< 1e-05	< 1e-05
G38U A52C A53G U54G	< 1e-05				
G38C G66A	< 1e-05	< 1e-05	< 1e-05		
A39U G44U C61A	< 1e-05	< 1e-05			
G38A G40A	< 1e-05	< 1e-05	< 1e-05	< 1e-05	< 1e-05
G41A C61A	< 1e-05	< 1e-05	< 1e-05	< 1e-05	< 1e-05
G38U A39U C58G C71U	< 1e-05			< 1e-05	
G40A C71G	0.000326 ± 5.2e-05				
G41C A52G	< 1e-05				
G41C A52C	< 1e-05	< 1e-05	< 1e-05	< 1e-05	< 1e-05
G38C G41A G43U G44C C50G	< 1e-05	< 1e-05			
A39U A53U	0.000461 ± 5e-05	0.0126 ± 0.0017	0.000985 ± 0.00016	0.00619 ± 0.001	0.00368 ± 0.00054
G38A A42U	< 1e-05				
G40C C68G	< 1e-05	< 1e-05	< 1e-05	< 1e-05	

Variant	self-cleavage kobs at 40 uM GlcN6P [1] [s⁻¹]	self-cleavage kobs at 10000 uM GlcN6P [2] [s⁻¹]	self-cleavage kobs at 160 uM GlcN6P [3] [s⁻¹]	self-cleavage kobs at 2500 uM GlcN6P [4] [s⁻¹]	self-cleavage kobs at 640 uM GlcN6P [5] [s⁻¹]
G40U G62U	< 1e-05	< 1e-05	< 1e-05	< 1e-05	< 1e-05
A39U A42G	0.000671 ± 0.00011	0.019 ± 0.006	0.00186 ± 0.00055	0.0216 ± 0.0065	0.0052 ± 0.0011
A39C A64U	< 1e-05		< 1e-05		
G40A U57G	< 1e-05			< 1e-05	< 1e-05
G40C U56A G62C	< 1e-05				
G38U G44A	< 1e-05	< 1e-05	< 1e-05	< 1e-05	< 1e-05
G38U G44C	< 1e-05	< 1e-05		< 1e-05	< 1e-05
G38U G44U	< 1e-05	< 1e-05	< 1e-05		< 1e-05
G40U U47A C70G	< 1e-05				
G38U G40A A42C C61A U65C	< 1e-05	< 1e-05			
G38U G62U	< 1e-05	< 1e-05	< 1e-05		< 1e-05
G38U A42U U49A G60U	< 1e-05	< 1e-05			
G38U U45G C58A	< 1e-05	< 1e-05	< 1e-05		
A39U C50G C68A	< 1e-05				
G40U G60U	< 1e-05	< 1e-05	< 1e-05	< 1e-05	< 1e-05
A39G G43U	< 1e-05				
G41C	1.75e-05 ± 1.7e-06				
G38U A52C C61A	< 1e-05				
G40A G43C G66A	< 1e-05				< 1e-05
A39U C68U	0.000444 ± 8.6e-05	0.00694 ± 0.0011	0.000829 ± 9e-05	0.00636 ± 0.00063	0.00309 ± 0.00026
G38U U46A	< 1e-05				
A39U A52U C68G	< 1e-05				
G40C A53G G63A	< 1e-05	< 1e-05			
A39G A42C	< 1e-05				
A39G U47A	0.00119 ± 0.00019				

Variant	self-cleavage kobs at 40 uM GlcN6P [1] [s⁻¹]	self-cleavage kobs at 10000 uM GlcN6P [2] [s⁻¹]	self-cleavage kobs at 160 uM GlcN6P [3] [s⁻¹]	self-cleavage kobs at 2500 uM GlcN6P [4] [s⁻¹]	self-cleavage kobs at 640 uM GlcN6P [5] [s⁻¹]
G40U A48C G59A	< 1e-05	< 1e-05			
G40A C50U U54C C68U	< 1e-05	< 1e-05	< 1e-05		
G40A G60A U69A	< 1e-05				
G40C A52G U55G	< 1e-05			4.2e-05 ± 1.1e-05	
G38C G63U A64U	< 1e-05				
A39U G43U	1.76e-05 ± 8.1e-06	0.00046 ± 4.6e-05	5.96e-05 ± 8.5e-06	0.000418 ± 4.9e-05	0.000127 ± 1.3e-05
A39C G63A	< 1e-05	< 1e-05	< 1e-05	< 1e-05	< 1e-05
A39G G59U	< 1e-05	5.72e-05 ± 9.8e-06	< 1e-05		
G41A C50A U57A	< 1e-05	< 1e-05	< 1e-05	< 1e-05	
A39C G66C C68G	< 1e-05	< 1e-05			
G40A U46G G60C C67A C70U	< 1e-05	< 1e-05			
G40C G60A C67U	< 1e-05	< 1e-05			
G38C C61U	< 1e-05		< 1e-05		< 1e-05
G38C C61G	< 1e-05			< 1e-05	< 1e-05
A39C G40C C61G	< 1e-05	< 1e-05			
G38C G41A	< 1e-05		< 1e-05	< 1e-05	< 1e-05
G38U G66A U69G	4.77e-05 ± 2e-05				
G40A A48C U57A C61G	< 1e-05			< 1e-05	
G38U U55G C67U	< 1e-05	< 1e-05		< 1e-05	
A39G G51U C58G U65G	< 1e-05	< 1e-05			
G38A A48U U56C	< 1e-05	< 1e-05			
G40U U56A	6.75e-05 ± 1.3e-05	0.00344 ± 0.00064	0.000124 ± 3.2e-05	0.00116 ± 0.00022	0.000381 ± 4.4e-05
G40C G59A U65G	< 1e-05				
A39C A48U U65G C71A	< 1e-05				
G38A A42U G44U A48G	< 1e-05				

Variant	self-cleavage kobs at 40 uM GlcN6P [1] [s⁻¹]	self-cleavage kobs at 10000 uM GlcN6P [2] [s⁻¹]	self-cleavage kobs at 160 uM GlcN6P [3] [s⁻¹]	self-cleavage kobs at 2500 uM GlcN6P [4] [s⁻¹]	self-cleavage kobs at 640 uM GlcN6P [5] [s⁻¹]
G41A G43U	< 1e-05	< 1e-05	< 1e-05		< 1e-05
G41A G43C	< 1e-05	< 1e-05	< 1e-05	< 1e-05	< 1e-05
A39U A53C C68G	< 1e-05				
G40A A42G A52C A53C	< 1e-05			< 1e-05	< 1e-05
A39U C68U C71G	< 1e-05	4.42e-05 ± 2e-05			
G41A C71A	2.7e-05 ± 8.9e-06	0.000248 ± 2.8e-05	5.23e-05 ± 1.1e-05	0.000308 ± 5.6e-05	0.000125 ± 1.7e-05
A39C A48U G59U	< 1e-05	< 1e-05			
A39C G40C U47C	< 1e-05				
G38A U47A	< 1e-05	< 1e-05	< 1e-05	< 1e-05	
G40A C68G C71A	< 1e-05			< 1e-05	
G38A U65G	< 1e-05	< 1e-05	< 1e-05		< 1e-05
G40U C61U C71G	< 1e-05				
G40U C68U	< 1e-05		< 1e-05		< 1e-05
A39G U54A	0.00173 ± 0.00037				
A39G C50A	< 1e-05		< 1e-05		
G38A C58U U69C	< 1e-05	< 1e-05			
G40C G43A U47G	< 1e-05				
A39C C61A C71U	< 1e-05	< 1e-05		< 1e-05	< 1e-05
G38U U47G	< 1e-05				
A39G G44U C71U	< 1e-05				
G38C G41U A53U	< 1e-05	< 1e-05		< 1e-05	
G40A C70A	2.59e-05 ± 1.2e-05	0.000217 ± 3.8e-05	6.86e-05 ± 1.9e-05	0.000235 ± 4.9e-05	0.000163 ± 2.5e-05
